Laboratory results published in publication PMC4336329 (PLoS ONE, 2015).
Out of some 310,000 compounds screened, about 14,000 (4.5%) showed an effect of 50% or more. Effects have a minus sign here. The list shows a part of the results.

Each molecule was assayed against human ether-à-go-go-related gene (hERG) potassium channel (human, UniProt Q12809) (assay: primary screen, population patch clamp on CHO cells stably expressing hERG).
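Further: peak tail current of the secondary pulse compared with the same well before compound.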

Chain of human ether-à-go-go-related gene (hERG) potassium channel (Q12809 whole entry, looked up): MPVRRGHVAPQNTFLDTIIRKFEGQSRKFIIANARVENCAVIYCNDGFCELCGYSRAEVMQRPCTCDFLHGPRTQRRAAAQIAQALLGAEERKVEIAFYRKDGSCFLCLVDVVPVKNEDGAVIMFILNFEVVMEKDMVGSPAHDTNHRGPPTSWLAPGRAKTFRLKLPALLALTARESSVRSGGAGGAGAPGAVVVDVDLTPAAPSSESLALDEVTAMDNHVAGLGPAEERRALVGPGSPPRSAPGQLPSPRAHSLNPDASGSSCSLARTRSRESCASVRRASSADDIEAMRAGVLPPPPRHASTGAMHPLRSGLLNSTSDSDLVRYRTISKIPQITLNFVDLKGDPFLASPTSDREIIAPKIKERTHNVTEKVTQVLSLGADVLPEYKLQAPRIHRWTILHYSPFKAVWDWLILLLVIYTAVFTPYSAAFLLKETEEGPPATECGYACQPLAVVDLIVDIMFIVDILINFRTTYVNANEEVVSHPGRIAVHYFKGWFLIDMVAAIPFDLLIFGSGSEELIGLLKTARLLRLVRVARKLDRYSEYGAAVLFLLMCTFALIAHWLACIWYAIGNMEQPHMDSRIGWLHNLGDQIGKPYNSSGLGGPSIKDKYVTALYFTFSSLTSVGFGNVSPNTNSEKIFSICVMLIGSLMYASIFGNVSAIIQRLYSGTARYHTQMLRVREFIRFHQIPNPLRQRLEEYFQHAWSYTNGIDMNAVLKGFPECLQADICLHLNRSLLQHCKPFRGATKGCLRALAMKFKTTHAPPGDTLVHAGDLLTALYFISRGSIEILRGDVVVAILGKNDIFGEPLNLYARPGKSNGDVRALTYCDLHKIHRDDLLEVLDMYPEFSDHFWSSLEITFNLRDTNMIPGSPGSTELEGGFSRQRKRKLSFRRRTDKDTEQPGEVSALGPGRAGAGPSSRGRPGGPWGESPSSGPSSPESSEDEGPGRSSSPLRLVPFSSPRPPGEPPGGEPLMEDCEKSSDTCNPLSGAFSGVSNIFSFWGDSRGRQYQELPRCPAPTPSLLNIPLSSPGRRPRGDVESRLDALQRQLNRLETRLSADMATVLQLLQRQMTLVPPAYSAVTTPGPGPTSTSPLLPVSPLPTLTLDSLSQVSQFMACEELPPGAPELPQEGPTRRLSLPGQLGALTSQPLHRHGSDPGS

Structure (SMILES)	hERG current change (%, negative = inhibition) at 10uM [%]
C=CCN1C(=O)/C(=C\c2ccc(OC(=O)c3ccco3)c(OC)c2)SC1=S	14.9
Cc1[nH]n(-c2ccccc2)c(=S)c1C=Nc1ccc([N+](=O)[O-])cc1	16.8
O=C(/C=C/c1ccco1)N1CCN(S(=O)(=O)c2ccc(F)c(F)c2F)CC1	-2.46
CCOC(=O)/C(=C\c1ccc(OC(F)F)cc1)C1=Nn2c(nnc2-c2ccc(Cl)cc2)SC1	-0.631
Cc1cc(OCC(=O)OCC(=O)NCCN2C(=O)CSC2=O)ccc1Cl	-2.65
O=C(O)C(Cc1ccccc1)N1C(=O)CCC1=O (centres unmarked)	14.4
COCCCN(C(=S)Nc1cc(C)cc(C)c1)C(C)c1ccncc1 (centres unmarked)	-41
COc1ccc2c(c1OC)C(=O)N(c1cccc(C)c1)C2	4.15
Cc1ccc(S(=O)(=O)NCc2cccnc2)cc1	5.22
O=C(O)C(=O)O.c1ccc(-c2ccccc2OCCOCCN2CCNCC2)cc1	2.27
COCCNC(=O)CCCn1c(=O)c2cc(OC)c(OC)cc2n(CC(=O)Nc2ccccc2OC)c1=O	5.35
O=C(Cn1nnc2ccccc21)OCC(=O)c1ccccc1	18.2
CCCCCCC(=O)N1C/C=C\C(c2ccc(OC)cc2)N(Cc2ccc(F)cc2)C(=O)[C@H]1Cc1ccccc1 (some centres unmarked)	-0.246
COc1cnc(-c2ccccn2)nc1Oc1ccccc1Cl	18.3
Cc1cc(C)cc(OCC(=O)NCCN2CCOCC2)c1	-0.76
CC(C)(C)c1ccc(C2=NC(=O)C(CC(=O)O)S2)cc1 (centres unmarked)	21.6
CC1=C(C(=O)Nc2cc(C)ccc2C)C(c2cccs2)NC(=S)N1 (centres unmarked)	14
CN(CCOc1ccc(Cl)cc1)C(=O)c1ccccc1SCC(=O)N1CCCC1	-37.6
Cc1noc(C)c1CSc1ccccc1C(=O)O	23.8
COc1ccc(CCNC(=S)N2CCN(S(=O)(=O)c3ccccc3)CC2)cc1	5.01
CC1CN(C(=O)C2CC(=O)N(c3ccc(Cl)cc3)C2)CC(C)O1 (centres unmarked)	-13.3
CNc1nc(OC)nc(N2CCOCC2)n1	21.8

Structure (SMILES)	hERG current change (%, negative = inhibition) at 10uM [%]
CCSc1nc2c(cnn2-c2ccc(C)cc2)c(=O)[nH]1	17
O=C(COC(=O)COc1cccc2ccccc12)NCC(F)(F)F	20.6
COc1ccccc1NS(=O)(=O)c1cc(NC(=O)CCC2CCCC2)ccc1N1CCOCC1	6.02
C=CCN1N=C(c2ccc(Cl)s2)CSC1=O	11
Cc1ccc(COC(=O)c2ccc3c(c2)C(=O)N(CCCN2CCOCC2)C3=O)cc1	-11.8
CCCCC(=O)Nc1ccc(C(=O)NCCCn2ccnc2)cc1	-7.39
O=C(COCc1cc(-c2cccs2)on1)NC1CCCCC1	7.69
Cc1ccc(Nc2nc3ccccc3n3cnnc23)c(Cl)c1	13.2
COc1ccccc1NC(=O)CN1CCN(c2ccccc2)CC1	-12.7
Cc1cc(C)c2nc(SCC(=O)Nc3ccc(S(=O)(=O)N4CCCC4)cc3)c(C)cc2c1	0.939
O=C(Nc1ccc2c(c1)CCCN2C(=O)c1cccs1)c1c(F)cccc1Cl	4.67
CCCC[n+]1cc(=N)o[n-]1.Cl	-2.78
COc1ccc(C(=O)N2CCC(C(=O)N3CCN(Cc4ccccc4)CC3)CC2)cc1	-9.58
CCOC(=O)Cn1nc(CC)c2ccccc2c1=O	-9.57
COc1cccc(-c2nnc(SCCC(=O)O)n2C)c1	2.27
CC(C)CC(N=Cc1c(O)c2ccccc2oc1=O)C(=O)O (centres unmarked)	14
C[C@H](NC(=O)c1nc[nH]c1C(=O)N[C@@H](Cc1ccccc1)C(=O)OCc1ccccc1)C(=O)OC(C)(C)C	-5.69
CN(Cc1nc(-c2cnccn2)no1)CC1CCN(Cc2ccccc2)CC1	-17.3
N#CC(C#N)=CN=c1ccn(Cc2ccc(Cl)cc2Cl)cc1	7.39
COc1ccc(CC(=O)Oc2ccc(C#N)cc2)cc1	21.7
C[C@]1(C(=O)NCCc2c[nH]c3ccccc23)C=C[C@@H](Cc2ccccc2)N1C(=O)c1ccccc1	-24
NC(=O)c1ccc(Nc2ccc3c(c2)CCC3)c([N+](=O)[O-])c1	8.96
